Here are results for 1 molecule from patent US20220184120A1 (MINERVA BIOTECHNOLOGIES, published 2022).

Assay in all cases: ELISA (FIG. 8)
For orientation: ELISA stands for enzyme-linked immunosorbent assay.

For assay [1], the target named is T1, N-10 peptide (PSMGFR minus 10 amino acids from the N-terminus).
T1 construct: also called N-10 PSMGFR; PSMGFR N-10
T1 peptide: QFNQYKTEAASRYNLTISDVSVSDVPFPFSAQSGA
The source says:
(§1) The huMN-E6 scFv-Fc bound to the PSMGFR peptide and to the PSMGFR N−10 peptide but not to the PSMGFR C−10 peptide. The parent MN-E6 antibody and the humanized MN-E6 require the C-terminal 10 amino acids of PSMGFR for binding.

The target of assay [2] is T2, C-10 peptide (PSMGFR minus 10 amino acids from the C-terminus).
T2 construct: also called C-10 PSMGFR; PSMGFR C-10
T2 peptide: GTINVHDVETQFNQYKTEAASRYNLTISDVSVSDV
Source text: as §1

Assay [3] deals with T3, PSMGFR peptide (Primary Sequence of the MUC1 Growth Factor Receptor).
T3 construct: synthetic peptide immobilised on ELISA plates; also called MUC1* peptide; MUC1* extra cellular domain peptide
T3 peptide: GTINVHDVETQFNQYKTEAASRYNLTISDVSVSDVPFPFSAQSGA
Source text: as §1

B1: humanized MN-E6 scFv-Fc (Fc fusion)
chain: DAAQPAEVQLVESGGGLVKPGGSLRLSCAASGFTFSRYGMSWVRQAPGKRLEWVSTISGGGTYIYYPDSVKGRFTISRDNAKNTLYLQMNSLRAEDTAVYYCTRDNYGRNYDYGMDYWGQGTLVTVSSGGGGSGGGGSGGGGSEIVLTQSPATLSLSPGERATLTCSATSSVSYIHWYQQRPGQSPRLLIYSTSNLASGIPARFSGSGSGSDYTLTISSLEPEDFAVYYCQQRSSSPFTFGSGTKVEIK[letters of human IgG1 Fc left out]
notes: also called huMN-E6 scFv-Fc; hMN-E6 scFv-Fc
B1: the binding result in assay [1] is recorded as “binds”; in assay [2], “no binding”; in assay [3], “binds”.
